Experimental data reported in article PMC5892938.
The list shows a part of the results. At the low end of the ranking the order means little.

These sequences were tested against GST-SBP-SLBP (stem-loop binding protein) (UniProt Q14493) (assay: targeted RNA Bind-n-Seq). Details: RBNS binding buffer: 25 mM Tris pH 7.5, 150 mM KCl, 3 mM MgCl2, 0.1% Tween, 0.5 mg/mL BSA, 1 mM DTT; 27 nM protein, 750 pM RNA pool; temperature not stated; high values mean tight binding.
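Also: DESeq read counts versus GST-SBP nonspecific binding control pulldown.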

Sequence	binding signal (log2 fold change)
GGUCACGUCUCAAUCAACUCUUUCUCCAGGGAAACCCCUGGCUUAUUCAACAGCUCGCAGUCAAG	-0.0316
GGUCACGUCUCAAUCAACUCUUCUUCAGGAGUUUCCUCCUGUUAUGUCAACAGCUCGCAGUCAAG	0.0846
GGUCACGUCUCAAUCAACUCACACGAGGGGGGGAAAACCCCUUUACCCUCUCCAUCAACAGCUCGCAGUCAAG	0.2
GGUCACGUCUCAAUCAACUCAACUCCCAGGGAAAGCCCUGGCUUUCUCAACAGCUCGCAGUCAAG	0.0433
GGUCACGUCUCAAUCAACUCUUCUCCCAGGGAAAGCCCUGGCAUAUUCAACAGCUCGCAGUCAAG	0.256
GGUCACGUCUCAAUCAACUCUACUUCAGGAGUUUCCUCCUGCAAAUUCAACAGCUCGCAGUCAAG	0.112
GGUCACGUCUCAAUCAACUCUUCUUCCAGGGAAAUCCCUGGCUAUCUCAACAGCUCGCAGUCAAG	0.00216
GGUCACGUCUCAAUCAACUCAAUUUCCAGGGAAAUCCCUGGCAUAUUCAACAGCUCGCAGUCAAG	0.0499
GGUCACGUCUCAAUCAACUCAAAAGAGGGGGGGAAAACCCCUUUACCCUCAACCUCAACAGCUCGCAGUCAAG	-0.211
GGUCACGUCUCAAUCAACUCUUCUUCAGGAGUUUCCUCCUGUAUAUUCAACAGCUCGCAGUCAAG	0.0449
GGUCACGUCUCAAUCAACUCAAUUUCAGGAGUUUUCUCCUGUGUAUUCAACAGCUCGCAGUCAAG	-0.14
GGUCACGUCUCAAUCAACUCAUCGCCAGGAGUUUACUCCUGUUAAUUCAACAGCUCGCAGUCAAG	-0.0489
GGUCACGUCUCAAUCAACUCUAUCUCCAGGGAAAGCCCUGGCAAAUUCAACAGCUCGCAGUCAAG	-0.0197
GGUCACGUCUCAAUCAACUCAUUCUCAGGAGUUUUCUCCUGCAUAUUCAACAGCUCGCAGUCAAG	0.151
GGUCACGUCUCAAUCAACUCUCUCGAGGGGGGGAAAACCCCUUUACCCUCUAAUUCAACAGCUCGCAGUCAAG	0.0891
GGUCACGUCUCAAUCAACUCUUCUCCAGGAGUUUACUCCUGUUAAUUCAACAGCUCGCAGUCAAG	0.0833
GGUCACGUCUCAAUCAACUCUAGUCCAGGAGUUUACUCCUGCUUAUUCAACAGCUCGCAGUCAAG	0.0263
GGUCACGUCUCAAUCAACUCUAUUUCCAGGGAAAUCCCUGGUUUUCUCAACAGCUCGCAGUCAAG	-0.264
GGUCACGUCUCAAUCAACUCCCAAGAGGGGGGGAAAACCCCUUUACCCUCAUCCUCAACAGCUCGCAGUCAAG	-0.0179
GGUCACGUCUCAAUCAACUCUUUUUCAGGAGUUUCCUCCUGUUAUGUCAACAGCUCGCAGUCAAG	0.0551
GGUCACGUCUCAAUCAACUCUUCCUCAGGAGUUUUCUCCUGUAAUCUCAACAGCUCGCAGUCAAG	-0.0416
GGUCACGUCUCAAUCAACUCAAUUUCCAGGGAAAACCCUGGCGUAUUCAACAGCUCGCAGUCAAG	0.25
GGUCACGUCUCAAUCAACUCAACUCCCAGGGAAAUCCCUGGCAAUCUCAACAGCUCGCAGUCAAG	0.0457
GGUCACGUCUCAAUCAACUCAUUCCCCAGGGAAAACCCUGGUAUAUUCAACAGCUCGCAGUCAAG	0.159
GGUCACGUCUCAAUCAACUCAAUCCCCAGGGAAAGCCCUGGCAUAGUCAACAGCUCGCAGUCAAG	-0.257

Sequence	binding signal (log2 fold change)
GGUCACGUCUCAAUCAACUCAUUCGAGGGGGGGAAAACCCCUUUACCCUCUAUAUCAACAGCUCGCAGUCAAG	-0.133
GGUCACGUCUCAAUCAACUCUAUCCCAGGAGUUUCCUCCUGUUAUCUCAACAGCUCGCAGUCAAG	0.201
GGUCACGUCUCAAUCAACUCAUCGCCAGGAGUUUGCUCCUGCUAUUUCAACAGCUCGCAGUCAAG	-0.0343
GGUCACGUCUCAAUCAACUCUAUCCCAGGAGUUUCCUCCUGCAAUUUCAACAGCUCGCAGUCAAG	0.00385
GGUCACGUCUCAAUCAACUCAAUUUCAGGAGUUUACUCCUGUAUUCUCAACAGCUCGCAGUCAAG	0.159
GGUCACGUCUCAAUCAACUCAAUCUCAGGAGUUUCCUCCUGUAUAGUCAACAGCUCGCAGUCAAG	-0.0514
GGUCACGUCUCAAUCAACUCAAUGUCAGGAGUUUCCUCCUGCUAAUUCAACAGCUCGCAGUCAAG	-0.109
GGUCACGUCUCAAUCAACUCCCCAGAGGGGGGGAAAACCCCUUUACCCUCCAUCUCAACAGCUCGCAGUCAAG	0.313
GGUCACGUCUCAAUCAACUCUAUCCCCAGGGAAAUCCCUGGUAUUUUCAACAGCUCGCAGUCAAG	-0.179
GGUCACGUCUCAAUCAACUCUUCCCCAGGAGUUUACUCCUGCUUUUUCAACAGCUCGCAGUCAAG	0.153
GGUCACGUCUCAAUCAACUCAUUCGAGGGGGGGAAAACCCCUUUACCCUCACUCUCAACAGCUCGCAGUCAAG	-0.234
GGUCACGUCUCAAUCAACUCCAUCGAGGGGGGGAAAACCCCUUUACCCUCACACUCAACAGCUCGCAGUCAAG	-0.449
GGUCACGUCUCAAUCAACUCAACGCCAGGAGUUUACUCCUGUAUAUUCAACAGCUCGCAGUCAAG	0.0411
GGUCACGUCUCAAUCAACUCUUUCUCCAGGGAAAACCCUGGCAUUUUCAACAGCUCGCAGUCAAG	0.0858
GGUCACGUCUCAAUCAACUCCCCAGAGGGGGGGAAAACCCCUUUGCCCUCAUCUUCAACAGCUCGCAGUCAAG	-0.155
GGUCACGUCUCAAUCAACUCAGUUUCAGGAGUUUUCUCCUGCUAUUUCAACAGCUCGCAGUCAAG	0.0795
GGUCACGUCUCAAUCAACUCUAUAGAGGGGGGGAAAACCCCUUUGCCCUCGUCAUCAACAGCUCGCAGUCAAG	-0.645
GGUCACGUCUCAAUCAACUCUAGUCCCAGGGAAAACCCUGGCUUUUUCAACAGCUCGCAGUCAAG	-0.259
GGUCACGUCUCAAUCAACUCUAUCCCCAGGGAAAGCCCUGGCUUUUUCAACAGCUCGCAGUCAAG	-0.0546
GGUCACGUCUCAAUCAACUCUUUCCCCAGGGAAACCCCUGGCUAAUUCAACAGCUCGCAGUCAAG	-0.116
GGUCACGUCUCAAUCAACUCUUUCUCAGGAGUUUACUCCUGCUUUCUCAACAGCUCGCAGUCAAG	0.0497
GGUCACGUCUCAAUCAACUCUAUUCCAGGAGUUUACUCCUGCUUUCUCAACAGCUCGCAGUCAAG	0.0402
GGUCACGUCUCAAUCAACUCUUCGCCCAGGGAAACCCCUGGUAUAUUCAACAGCUCGCAGUCAAG	0.107
GGUCACGUCUCAAUCAACUCAUUUCCCAGGGAAAGCCCUGGCUAACUCAACAGCUCGCAGUCAAG	0.0699
GGUCACGUCUCAAUCAACUCCAAAGAGGGGGGGAAAACCCCUUUGCCCUCAAAUUCAACAGCUCGCAGUCAAG	0.295

Sequence	binding signal (log2 fold change)
GGUCACGUCUCAAUCAACUCUACUCCCAGGGAAACCCCUGGCUAAUUCAACAGCUCGCAGUCAAG	0.138
GGUCACGUCUCAAUCAACUCAAUCCCAGGAGUUUCCUCCUGCUUUUUCAACAGCUCGCAGUCAAG	0.086
GGUCACGUCUCAAUCAACUCAGUCUCCAGGGAAAACCCUGGCAAUCUCAACAGCUCGCAGUCAAG	0.0728
GGUCACGUCUCAAUCAACUCAAUUCCAGGAGUUUCCUCCUGUUAAUUCAACAGCUCGCAGUCAAG	0.0734
GGUCACGUCUCAAUCAACUCAAUUUCCAGGGAAAGCCCUGGCUUUCUCAACAGCUCGCAGUCAAG	0.243
GGUCACGUCUCAAUCAACUCAAAAGAGGGGGGGAAAACCCCUUUGCCCUCAUUAUCAACAGCUCGCAGUCAAG	-0.0343
GGUCACGUCUCAAUCAACUCAUUUCCAGGAGUUUGCUCCUGCUUAUUCAACAGCUCGCAGUCAAG	0.064
GGUCACGUCUCAAUCAACUCUAUGUCCAGGGAAAUCCCUGGCUUUUUCAACAGCUCGCAGUCAAG	-0.352
GGUCACGUCUCAAUCAACUCUUUCGAGGGGGGGAAAACCCCUUUACCCUCUUUUUCAACAGCUCGCAGUCAAG	0.175
GGUCACGUCUCAAUCAACUCAUCCCCCAGGGAAAUCCCUGGCAUAUUCAACAGCUCGCAGUCAAG	-0.0937
GGUCACGUCUCAAUCAACUCUUUCUCAGGAGUUUUCUCCUGCAUAUUCAACAGCUCGCAGUCAAG	-0.0379
GGUCACGUCUCAAUCAACUCUUCUUCCAGGGAAAACCCUGGUAUUUUCAACAGCUCGCAGUCAAG	-0.0599
GGUCACGUCUCAAUCAACUCCAAAGAGGGGGGGAAAACCCCUUUGCCCUCGUAUUCAACAGCUCGCAGUCAAG	-0.259
GGUCACGUCUCAAUCAACUCAAUUCCAGGAGUUUCCUCCUGCUUUCUCAACAGCUCGCAGUCAAG	0.0879
GGUCACGUCUCAAUCAACUCAACGCCAGGAGUUUCCUCCUGUAAUCUCAACAGCUCGCAGUCAAG	0.146
GGUCACGUCUCAAUCAACUCAACUCCCAGGGAAAUCCCUGGUAUUCUCAACAGCUCGCAGUCAAG	-0.111
GGUCACGUCUCAAUCAACUCAAUUCCCAGGGAAACCCCUGGCUAUCUCAACAGCUCGCAGUCAAG	-0.127
GGUCACGUCUCAAUCAACUCAUCGGAGGGGGGGAAAACCCCUUUACCCUCAUUAUCAACAGCUCGCAGUCAAG	0.106
GGUCACGUCUCAAUCAACUCCACAGAGGGGGGGAAAACCCCUUUACCCUCAUCAUCAACAGCUCGCAGUCAAG	-0.218
GGUCACGUCUCAAUCAACUCAAUCCCAGGAGUUUUCUCCUGCAUACUCAACAGCUCGCAGUCAAG	0.144
GGUCACGUCUCAAUCAACUCAUCUUCAGGAGUUUACUCCUGUAUAUUCAACAGCUCGCAGUCAAG	0.171
GGUCACGUCUCAAUCAACUCAACUCCCAGGGAAAUCCCUGGUUAACUCAACAGCUCGCAGUCAAG	0.134
GGUCACGUCUCAAUCAACUCUUUCCCAGGAGUUUACUCCUGCAAUUUCAACAGCUCGCAGUCAAG	0.127
GGUCACGUCUCAAUCAACUCUAUCCCCAGGGAAAUCCCUGGUUAUUUCAACAGCUCGCAGUCAAG	-0.0565
